Source: ChEMBL document CHEMBL4888484, “Replenishing the malaria drug discovery pipeline: Screening and hit evaluation of the MMV Hit Generation Library 1 (HGL1) against asexual blood stage Plasmodium falciparum ,using a nano luciferase reporter read-out” (2022)
About 540 (0.36%) of roughly 150,000 compounds showed an effect of 50% or more. The list shows a part of the results.

test system: Plasmodium falciparum; experiment: Primary screen in NF54 nanoGlo assay, in single point, at 2uM, 72h; a lower Z score goes with more inhibition; type: functional, Erythrocyte; conditions: timepoint 72 hour

Row | Compound | % Inhibition | Z score
1 | O=C(c1cc(-c2ccco2)[nH]n1)N1CCCN(C[C@H]2CCCO2)CC1 | -4% | 0.42
2 | CCCC[C@H](CC)C(=O)N1CCN(c2nc(Cc3ccccc3)nc3c2c(C)nn3-c2ccccc2)CC1 | -13% | 1.88
3 | CC(=O)N1c2ccccc2N=C(O)C[C@@H]1C | -2% | 0.24
4 | Cn1c(N2CCCCO2)c(C#N)c(=O)n(C)c1=O | -9% | 0.9
5 | CC(C)(C)[C@H](NCc1cccnc1C(F)(F)F)C(N)=O | 6% | -0.69
6 | FC(F)(F)c1ccnc(Nc2ccc3c(c2)OCO3)n1 | -4% | 0.56
7 | CCOCCCNC(=O)COc1cc(C)c2c(-c3ccccc3)nn(-c3ccccc3)c2n1 | -15% | 2.18
8 | COCc1ncc(C(=O)N2CC(C)C(C)C2)c(N)n1 (stereo not given) | -1% | 0.13
9 | CN(C)c1ccc(C(=O)N2CCC[C@H](n3cc(-c4nc(C5CC5)no4)nn3)C2)cc1 | -9% | 1
10 | Cc1ccc(NC(=O)c2ccc(Oc3ccnc(-c4ccc(F)cc4)n3)cc2)cc1 | 4% | -0.52
11 | CCN(c1ccc(Br)cc1Cl)S(C)(=O)=O | -8% | 1.27
12 | COc1ccc(CN2C(=O)COC[C@H]2C(=O)N2CCN(C3CCCCC3)CC2)c(OC)c1 | -10% | 1.65
13 | c1cnc2c(-n3nc(C4CCOCC4)nc3[C@H]3CCCN3)cccc2c1 | 13% | -1.65
14 | O=C(Nc1ccnn1C1CCCCC1)c1cccnc1 | -6% | 0.72
15 | O=c1ncn(Cc2ccc3c(c2)OCO3)cc1-c1ncc(C(F)(F)F)cc1Cl | 5% | -0.75
16 | CCn1cc(-c2cccc(C(=O)N[C@@H](C)c3nc(C)sc3C)c2)cn1 | -4% | 0.85
17 | COc1ccc(O[C@H]2COCCN(S(=O)(=O)c3ccc(F)cc3)C2)cc1 | -7% | 1.03
18 | CCS(=O)(=O)NCCCNc1nnc(-c2ccc(O)cc2)s1 | -19% | 2.42
19 | Cc1cnn(C2CN(CC(=O)N3CC(=O)Nc4ccccc43)C2)c1 | -10% | 1.59
20 | CC(=O)N1CCCN(C(=O)c2cc(C(N)=O)cs2)CC1 | -3% | 0.53
21 | CCC(=O)N1CCc2cc(N3C[C@@H](C(=O)NC4CCCCC4)CC3=O)ccc21 | 1% | -0.18
22 | Cc1c(NC(=O)N[C@@H](C)c2nc3c(s2)CCCC3)cnn1C | 0% | 0.07

Row | Compound | % Inhibition | Z score
23 | O=C1N[C@H]2CC[C@@H]1CN(C(=O)c1cccc(-c3ccc4nccc(O)c4c3)c1)C2 | -3% | 0.64
24 | CCCCc1oc2ccccc2c1CN1CCC(NC(C)=O)CC1 | -8% | 0.86
25 | COc1cc(C(=O)N(C)C[C@H]2CCOC2)ccn1 | 0% | 0.01
26 | C[C@H]1CN(C(=O)c2cccc(Oc3ccncc3)c2)CCN1 | -5% | 0.71
27 | CCC[C@H](C)CS(=O)(=O)N(C)C1CCC(C)CC1 (stereo not given in full) | -1% | 0.15
28 | COc1ccc(Cc2nc(-c3sccc3Cl)n(CCO)n2)cc1 | 1% | -0.26
29 | CC(C(=O)Nc1cc(Cl)cc(Cl)c1)N1CCCC(c2nnc3ccc(C(F)(F)F)cn23)C1 (stereo not given) | -10% | 1.13
30 | COc1ccccc1NC(=O)c1oc2ccccc2c1NC(=O)C1CCCC1 | 5% | -0.85
31 | O=C(CCN1CCC[C@H](NCc2ccccc2)C1)Nc1ccccc1Cl | -2% | 0.2
32 | CCOC(=O)N1CCc2c(sc(NCc3ccccc3OCC)c2C(=O)Nc2cc(Cl)ccc2OC)C1 | 3% | -0.52
33 | CC(C)(C)OC(=O)N1CCOCC1C1CCCC1NCC(=O)NCC1CC1 (stereo not given) | -1% | 0.09
34 | CC(C)c1nccn1CCC(=O)N1CC[C@H](N)C1 | 6% | -0.94
35 | CCCN1CCN(CCN2CCOC[C@@H]2C)C(C)(C)C1=O | -3% | 0.35
36 | O=C(Nc1ccc(C(=O)c2ccncc2)cc1)c1ccc(O[C@@H](F)C(F)(F)C(F)(F)F)cc1 | 3% | -0.38
37 | COc1cccn2ncc(C(=O)N3CCC[C@H]3c3nc(C)cs3)c12 | 1% | -0.08
38 | O=C(NCc1ccncc1)[C@H]1CCCN(S(=O)(=O)c2ccc3ccccc3c2)C1 | -7% | 1.26
39 | Cc1cc(NC(=O)Cn2nc(C3CC3)ccc2=O)sn1 | 14% | -1.86
40 | O=C(NCc1ccc(S(=O)(=O)N2CCOCC2)s1)c1ccc(F)cc1F | 0% | 0.07
41 | CC(=O)Nc1ccc(C)cc1S(=O)(=O)N1CCCCC[C@H]1c1ccc(C)s1 | -10% | 1.34
42 | COC1CN(c2ccc(NC(=O)CCc3ccc(Cl)c(C)c3)cc2)C1 | -8% | 1.23
43 | Cc1nn(C)c(Cl)c1S(=O)(=O)N1CCC[C@H]1C(N)=O | -6% | 0.79
44 | CC1CC(NCc2ccccc2OCCN2CCOCC2)CN1C (stereo not given) | 7% | -1.05

Row | Compound | % Inhibition | Z score
45 | Cc1noc(-c2cccc(NC(=O)C3CCN(S(=O)(=O)c4ccc5c(c4)CCC5)CC3)c2)n1 | 12% | -1.62
46 | O=C(c1ccc(S(=O)(=O)N2CCCCC2)cc1)N1CCCCC1 | -6% | 0.87
47 | CN1CC2(CCN(C(=O)c3ccc(F)cc3)CC2)C[C@@H](c2ccccc2)C1=O | 15% | -2
48 | FC(F)(F)c1cccc(Oc2cc(Oc3cccc(C(F)(F)F)c3)nc(-c3ccccc3)n2)c1 | -12% | 2.26
49 | COc1ccc(-c2nc3ccc(C(=O)NCCN4CCOCC4)cc3nc2-c2ccc(OC)cc2)cc1 | 9% | -1.19
50 | CCc1cnc(CNC(=O)Nc2cccc(N3CCCC3=O)c2)s1 | -2% | 0.22
51 | O=C(c1cnn2c1OCCC2)N1CCN(c2ccccc2Cl)CC1 | -9% | 1.36
52 | C=CCn1cnc2c1c(=O)n(C1CC1)c(=O)n2-c1ccc(F)cc1 | -13% | 1.27
53 | Cc1cc(C)cc(CN2CCN(C(=O)c3cnc(C)cc3C)CC2=O)c1 | -6% | 0.94
54 | CC(C)Cc1nnc(NC(=O)c2ccccn2)[nH]1 | -15% | 1.84
55 | CN(Cc1ccccc1N1CCOCC1)c1ccc2nncn2n1 | -25% | 2.51
56 | Cc1ccc(CCC(=O)N2CC(CN3C(=O)COC3=O)C2)cc1C | 15% | -1.96
57 | COc1cc(OC)cc(C(=O)N[C@@H](Cn2nccn2)C(C)C)c1 | -12% | 1.83
58 | COC1(CNC(=O)NC2(Cc3ccccc3)CCCC2)CCOCC1 | -6% | 0.73
59 | Cc1cc(NC(=O)NCc2ccccc2CC(F)(F)F)c(N(C)C)nn1 | -2% | 0.39
60 | Cc1sccc1NC(=O)NCc1nc(CN(C)C)cs1 | -4% | 0.69
61 | O=S(=O)(NCC1CCCC1O)C1Cc2ccccc2C1 (stereo not given) | -3% | 0.41
62 | CCOC(=O)c1cnc(N2CCN(Cc3ccccn3)CC2)s1 | -11% | 1.52
63 | CC(C)(NC(=O)c1cnc(OCC2CC2)cn1)C(F)(F)F | 1% | -0.23
64 | CN1CCN(S(=O)(=O)c2cccc3nsnc23)C[C@@H]1CO | 0% | -0.02
65 | CCn1ccc2ccc(CN3CCC(CC(=O)NC)CC3)cc21 | -3% | 0.56
66 | CN(c1cccnn1)C1CCN(C(=O)Nc2ccc(F)cc2)CC1 | 32% | -3.58

Row | Compound | % Inhibition | Z score
67 | Cc1c([C@@H]2CCCN2C(=O)c2cc(C#N)ccc2Cl)cnn1C | -1% | 0.19
68 | Nc1nc(C2CCCC2)ncc1C(=O)N1CCC[C@H](CN2CCCCCC2)C1 | -6% | 0.92
69 | Cn1nccc1C1(O)CCN(c2ccc3nccnc3n2)CC1 | 1% | -0.18
70 | CN(CCc1nccs1)c1nnc(C2CC2)o1 | -8% | 1.35
71 | O=C(N[C@H]1CCN(Cc2ccccn2)C[C@@H]1O)c1ccon1 | -12% | 1.7
72 | CS(=O)(=O)N1CCN(C(=O)COc2ccc(Cl)cc2C2CCCCC2)CC1 | 1% | -0.19
73 | Cc1cc(O)ccc1NC(=O)Nc1c(C)ccn(C)c1=O | 1% | -0.07
74 | Cn1cnc2cc(CN3CCNC(=O)C3(C)C)ccc21 | -4% | 0.66
75 | CC1C(C(F)(F)F)OCCN1C(=O)NC1CCCC1Cc1ccccn1 (stereo not given) | -4% | 0.71
76 | Cc1nn(C)c(C)c1C(=O)N1CC(CF)C1 | 1% | -0.17
77 | COC1(C)CC(N(C)C(=O)c2cc3ccccc3o2)C1(C)C (stereo not given) | -8% | 0.98
78 | C[C@]1(F)CNCCN(C(=O)CCc2ccncn2)C1 | -4% | 0.69
79 | CC1CCN(c2nccnc2Oc2ccc(C(=O)N3CCN(c4ccccc4Cl)CC3)cc2)CC1 | 11% | -1.7
80 | c1cnc(Cc2noc([C@H]3CCCc4[nH]nnc43)n2)cn1 | 21% | -2.62
81 | O=C(NC(c1ccccc1)c1ccccc1)c1ccc(OCC2CCOCC2)nc1 | -16% | 3.06
82 | O=C1N(Cc2ccc(F)cc2)CCC[C@@]1(O)CNC1CC1 | -20% | 1.79
83 | N#Cc1ccccc1OCc1ccc(S(=O)(=O)N2CCCC2)o1 | 7% | -0.96
84 | Cc1nn(C)c2nc(N[C@@H]3C[C@@H](CO)N(C)C3)sc12 | 3% | -0.48
85 | Cc1ccc(-n2cc(-c3ccccc3)nc2NC(=O)CN(Cc2ccccc2)C(=O)NC(C)C)cc1F | 3% | -0.24
